In the antibiotic and cytotoxicity screens of Wong et al. (2023):
The list shows a part of the results.

System: S. aureus RN4220
Test: growth inhibition call (relative growth <= 0.2)
Conditions: 50 µM

Growth inhibition call, inactive:
COc1ccc(CN(C)C[C@@H]2OCCCC[C@H](C)Oc3ccc(NC(=O)CCC(F)(F)F)cc3C(=O)N([C@@H](C)CO)C[C@H]2C)cc1
CC(C)CC#Cc1ccc2c(c1)O[C@@H](CN(C)C(=O)Cc1ccccn1)[C@@H](C)CN([C@@H](C)CO)S2(=O)=O
CC(=O)NCCCS(=O)(=O)[O-].CC(=O)NCCCS(=O)(=O)[O-].[Ca+2]
C[C@@H]1CN([C@@H](C)CO)C(=O)c2cc(-c3cccnc3)cnc2O[C@H]1CN(C)Cc1ccc(-c2ccccc2)cc1
NCc1cccc(-n2cccn2)c1
O=C(O)CCCCN(CCc1ccccc1OCc1ccc(CCc2ccccc2)cc1)Cc1ccc(C(=O)O)cc1
C[C@@H]1CN([C@H](C)CO)C(=O)c2cc(NC(=O)Nc3ccc4c(c3)OCO4)ccc2O[C@@H]1CN(C)C(=O)Nc1cccc2ccccc12
CNC[C@@H]1Oc2c(NS(=O)(=O)c3cn(C)cn3)cccc2C(=O)N([C@@H](C)CO)C[C@H]1C
NCC[C@H]1CC[C@@H](NC(=O)C2CCCCC2)[C@H](CO)O1
Cl.NCCCCC(N)C(=O)O (configuration not stated)
C[C@@H]1CCCCO[C@H](CN(C)C(=O)Nc2ccc(F)cc2)[C@@H](C)CN([C@@H](C)CO)C(=O)c2cc(NC(=O)c3ccncc3)ccc2O1
C[C@@H]1CCCCO[C@H](CN(C)C(=O)Cc2ccccc2)[C@H](C)CN([C@@H](C)CO)C(=O)c2cc(NC(=O)Nc3ccc4c(c3)OCO4)ccc2O1
